In article PMC4336329 (PLoS ONE, 2015):
The campaign covered roughly 310,000 compounds. About 14,000 (4.5%) showed an effect of 50% or more. The effect is printed as a negative number. The list shows a part of the results.

Molecular target: human ether-à-go-go-related gene (hERG) potassium channel (human, UniProt Q12809)
Assay: primary screen, population patch clamp on CHO cells stably expressing hERG
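Further: peak tail current of the secondary pulse compared with the same well before compound.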

Chain of human ether-à-go-go-related gene (hERG) potassium channel (Q12809 whole entry, looked up): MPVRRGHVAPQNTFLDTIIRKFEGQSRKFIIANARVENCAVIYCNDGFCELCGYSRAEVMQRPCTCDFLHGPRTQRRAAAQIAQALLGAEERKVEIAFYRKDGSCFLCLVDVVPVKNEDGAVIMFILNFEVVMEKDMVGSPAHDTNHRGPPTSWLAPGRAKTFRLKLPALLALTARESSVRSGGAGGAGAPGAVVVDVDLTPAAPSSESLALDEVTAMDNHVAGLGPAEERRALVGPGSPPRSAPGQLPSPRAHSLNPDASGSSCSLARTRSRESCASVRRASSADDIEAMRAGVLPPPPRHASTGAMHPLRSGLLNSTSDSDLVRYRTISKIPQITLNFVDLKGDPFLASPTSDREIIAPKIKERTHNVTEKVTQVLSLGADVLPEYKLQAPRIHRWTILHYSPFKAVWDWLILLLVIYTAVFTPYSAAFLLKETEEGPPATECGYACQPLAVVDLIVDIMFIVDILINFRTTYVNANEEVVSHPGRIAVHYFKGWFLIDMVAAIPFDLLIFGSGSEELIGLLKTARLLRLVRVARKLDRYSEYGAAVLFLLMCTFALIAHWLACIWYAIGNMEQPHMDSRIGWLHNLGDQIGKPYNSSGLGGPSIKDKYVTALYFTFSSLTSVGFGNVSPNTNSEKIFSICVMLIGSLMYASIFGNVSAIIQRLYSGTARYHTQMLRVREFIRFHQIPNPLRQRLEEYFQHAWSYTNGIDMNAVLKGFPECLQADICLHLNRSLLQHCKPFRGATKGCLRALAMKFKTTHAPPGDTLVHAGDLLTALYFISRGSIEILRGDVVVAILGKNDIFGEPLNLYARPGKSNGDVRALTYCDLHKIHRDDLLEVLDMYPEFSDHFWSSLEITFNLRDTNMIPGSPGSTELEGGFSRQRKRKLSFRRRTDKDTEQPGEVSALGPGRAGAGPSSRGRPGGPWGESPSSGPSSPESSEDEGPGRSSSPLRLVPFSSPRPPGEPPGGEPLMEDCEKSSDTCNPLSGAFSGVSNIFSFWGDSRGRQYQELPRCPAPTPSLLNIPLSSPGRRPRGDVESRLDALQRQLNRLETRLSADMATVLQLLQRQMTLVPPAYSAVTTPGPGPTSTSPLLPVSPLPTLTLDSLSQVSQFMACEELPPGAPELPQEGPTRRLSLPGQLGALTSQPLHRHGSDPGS

Compound | hERG current change (%, negative = inhibition) at 10uM
CCOc1cc2c(cc1OCC)C(c1ccc(C(=O)O)cc1)NCC2.Cl (stereo not shown) | 6.83%
COCCCn1c(-c2ccc(OC)cc2)nc2c1c(=O)[nH]c(=O)n2Cc1ccccc1 | -8.91%
CCn1c(COc2ccc(C)cc2)nnc1SCc1nc2ccccc2[nH]1 | -23.1%
COc1ccc(N(C(=O)COc2ccccc2)C2C=CS(=O)(=O)C2)c(OC)c1 (stereo not shown) | -25.5%
CCOC(=O)CSc1nnc(CNc2cccc(Cl)c2)n1-c1ccccc1 | -25.3%
CCN(c1ccccc1)S(=O)(=O)c1ccc(Cl)c(NC(=O)COC(=O)c2ccc(Cl)c(N)c2)c1 | 7.36%
COc1cccc(/C=C2\C(=O)N(c3cccc(C)c3)C(=O)c3ccccc32)c1 | 4.6%
COCCOC(=O)C1=C(C)NC(=O)CC1c1cc2c(cc1Br)OCO2 (stereo not shown) | -11.7%
CCCCN(CCCC)c1cc(C)nc(-c2ccccc2O)n1 | 16.8%
CNCc1cc2ccc(C)cc2[nH]c1=O | -33.1%
COc1ccc(OC)c2[nH]c(C(=O)N3CCC(C(=O)O)CC3)cc12 | 24.6%
CCOc1ccc(-c2nc(S(=O)(=O)c3ccccc3)c(NCc3cccnc3)o2)cc1 | -2.9%
CCN1C(=NCc2cccc(Cl)c2)N[C@@H](c2cccc(F)c2)C(C(=O)OC)=C1C | -41.4%
COc1ccc2[nH]c(C)c(CCNCc3cccnc3)c2c1.O=C(O)C(=O)O | -3.77%
CCCc1cc(=O)c2c(O)cccc2o1 | 5.41%
COc1ccc(N/C=C(\C#N)S(=O)(=O)c2ccc(Cl)cc2)c(OC)c1 | -8.9%
C=CCSc1nnc(Cc2c(C)[nH]c3ccccc23)o1 | -14.2%
Cc1cccc(OCc2nnc(SCC(=O)N3CC(=O)Nc4ccccc43)o2)c1 | 13.5%
O=C(NCC1COc2ccccc2O1)c1ccccc1 (stereo not shown) | -1.83%
Cc1ccc(-c2nnc(SCC(=O)N/N=C/c3ccc(C)s3)n2-c2ccc(C)cc2)cc1 | -17.4%
COc1cc(C(=O)NCCCN(C)C)ccc1OCC(=O)Nc1cccc(C(F)(F)F)c1 | -59.1%
Cn1c(CO)c(-c2ccccc2)c2cc([N+](=O)[O-])ccc21 | 10.2%
CC(C(=O)N(C)Cc1ccccc1)N1CCN(C/C=C/c2ccccc2)CC1 (stereo not shown) | -78.9%
CC(=O)Nc1ccc(-c2csc(Nc3ccc(Cl)cn3)n2)cc1 | 20.8%
CCc1ccc(/C=C2\Oc3c(ccc(O)c3CN3CCN(CCO)CC3)C2=O)cc1 | -2.12%
O=C(O)CCCC(=O)N1CCc2cc(S(=O)(=O)N3CCc4ccccc43)ccc21 | 14.4%
Cc1c(NC(=O)Nc2cccc([N+](=O)[O-])c2)c(=O)n(-c2ccccc2)n1C | -21.1%
Cc1c(Cc2ccc3c(c2)OCO3)sc(NC(=O)c2cccc3ccccc23)c1C(N)=O | 17.4%

Compound | hERG current change (%, negative = inhibition) at 10uM
COc1cc(C(=O)Nc2ccc3nc4n(c(=O)c3c2)CCCC4)ccc1Br | -25%
COc1ccccc1CNC(=O)C(NC(=O)Nc1ccccc1)C(C)C (stereo not shown) | 13%
CCCC(=O)O[C@@H]1C[C@@H](C)N(C(=O)c2ccccc2)c2ccc(C)cc21 | -37.7%
NC(=Nc1ccc(Br)cc1)c1ccccc1 | 5.73%
CCN(CC(=O)N1CCCC1)S(=O)(=O)c1ccc(Br)cc1 | 13.5%
Cn1cnc(S(=O)(=O)N2CCN(c3cccc(C(F)(F)F)c3)CC2)c1 | 7.43%
Cc1ccccc1N1C(S)=C(C#N)C(=O)NC1c1cccs1 (stereo not shown) | 21.7%
Cc1c(NS(=O)(=O)c2ccc(N(C)C3CCCCC3)c([N+](=O)[O-])c2)c(=O)n(-c2ccccc2)n1C | -22%
COCCCNC(=O)NC(=O)c1ccccc1 | 12%
COc1ccc(CCN2Cc3c(N)cccc3C2=O)cc1OC | 17.9%
Cc1[nH]c2ccccc2c1N=Nc1c(C)n(C)n(-c2ccccc2)c1=O | 11.3%
CCc1ccccc1OCc1nc2ccc(S(=O)(=O)N3CCOCC3)cc2[nH]1 | -42.7%
O=C1/C(=C/c2cccs2)NC(=S)N1C1CC1 | -7.14%
CCOc1ccc2[nH]c(C)c(CN3CCOCC3)c(=O)c2c1 | 16.7%
CCOC(=O)C1CCCN(C(=O)C2CCN(c3nnc(-n4cccc4)s3)CC2)C1 (stereo not shown) | -48.6%
Cc1cccc(C(=O)NCc2nnc(SCC(=O)N3CCN(c4ccccc4)CC3)n2C)c1 | 7.34%
CCN(c1ccc(OC)cc1)S(=O)(=O)c1nnc(NC(=O)COc2ccc(C)cc2)s1 | 14.8%
CC(=O)/C(=C\Nc1ccc(OCc2ccccc2)cc1)c1ccccc1 | -3.12%
COc1ccccc1OCCNC(=O)c1ccc(Br)cc1 | -6.49%
CC1=CC(C)[C@H](/C=N/n2c(=O)[nH]c3c([nH]c4ccc(C)cc43)c2=O)C(C)C1 (stereo partly shown) | 17.4%
CCN(CC)CCN1C(=O)C(=O)/C(=C(/O)c2c(C)[nH]c(C(=O)OC)c2C)C1c1cccs1 (stereo not shown) | 3.31%
COc1ccc(NC(=O)C2CCCN(c3cnccn3)C2)c(OC)c1 (stereo not shown) | 21.4%
COc1cc(OC)c(C(=O)NCCCN2CCOCC2)cc1OC | 13.1%
COc1ccc(/C=N/NC(=O)c2nc(-c3ccccc3)n(-c3ccccc3)n2)c(O)c1 | 11.6%
COc1ccc(N(C(=O)C2CCCCC2)C2C=CS(=O)(=O)C2)c(OC)c1 (stereo not shown) | -2.51%
COc1ccc(C(C)(C)C)cc1NC(=O)c1ccc[n+]([O-])c1 | 18.8%
Cc1ccc2nc(NC(=O)C3CCN(c4ncnc5sc(C)c(C)c45)CC3)sc2c1 | -24.5%
